Measured values reported in PubChem BioAssay AID686978 (National Center for Advancing Translational Sciences (NCATS), 2013).
The whole screen tested about 420,000 compounds, of which about 64,000 (15%) were called active. This list was built around the results that the source calls inconclusive (neither active nor inactive); the mix of calls is not that of the screen. Calls come from the whole dose curve; as a rule, active = well fitted inhibition curve with a large enough effect; inconclusive = small, poorly fitted or top-dose-only effect; inactive = flat fitted curve, though single readings scatter. Potencies of inconclusive entries are left out as doubtful fits.

Assay: qHTS for Inhibitors of human tyrosyl-DNA phosphodiesterase 1 (TDP1): qHTS in cells in absence of CPT; note: nearly all actives have a fitted effect of over 55% in size
Details: DT40 Tdp1-/- hTDP1 cells, no CPT, ATP luminescence, 48 h; activity change, negative = growth inhibition: at 46.2 µM (top of the series)
Outline: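 Stably hTDP1-transfected Tdp1-null chicken DT40 cells were treated with library compounds minus camptothecin and grown for at least 48 hr at 37 °C, after which cellular ATP was quantified by luminescence.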
% is set by controls: 0 for no effect and ±100 for the full control effect; potency is the fitted concentration of half-maximal effect; tags give direction and shape of the fitted curve.

SMILES | Potency | activity change, negative = growth inhibition
COC(=O)c1c(C)oc(C)c1S(=O)(=O)Nc1ccc(C(C)C)cc1 | inconclusive [inhibitor, single point] | 
CCN(C(=O)c1c(OC)cccc1OC)c1nnc(-c2cccnc2)s1 | inconclusive [inhibitor, single point] | 
Cn1cc(S(=O)(=O)N2CCCC2)cc1C(=O)Nc1ccc(C(F)(F)F)cc1 | inconclusive [inhibitor, single point] | 
Cc1ccc(Cn2cnc3ccccc32)cc1 | active: 20.6 µM | 
COc1ccc(CNc2oc(COc3cccc(C)c3)nc2C#N)cc1 | inconclusive [inhibitor, single point] | 
O=C(c1cc(Cl)cc(Cl)c1)N1CCC(=O)N(C(COCc2ccccc2)Cc2ccccc2)CC1 (stereo not drawn) | inconclusive [inhibitor, partial curve, poor fit] | 
O=C(Nc1ccc(SC(F)F)cc1)c1ccc2c(=O)n3c(nc2c1)CCC3 | inconclusive [inhibitor, partial curve] | 
Cc1ccc(N2C(=O)CN=C2Nc2nc(C)cc(C)n2)cc1 | inactive | 
O=C(/C=C/c1ccccc1)NNC(=O)c1cccnc1 | inactive | 
Nc1nc2ccc([N+](=O)[O-])c(N)c2s1 | inconclusive [inhibitor, single point] | 
N#Cc1ccccc1/C=N/Nc1nc(-c2ccccc2)c2cc(Cl)ccc2n1 | inconclusive [inhibitor, partial curve] | 
CCc1cccc(CC)c1-n1c(SCn2nnc3ccccc3c2=O)nnc1-c1cccnc1 | inconclusive [inhibitor, partial curve, poor fit] | 
CCCCc1cc(=O)oc2c(CN(CC)CC)c(O)c(Cl)cc12 | inconclusive [inhibitor, single point] | 
O=C(Nc1ccc(N2CCN(C(=O)c3cccs3)CC2)cc1)c1cccnc1 | inconclusive [inhibitor, single point] | 
CCCN1CNC(=S)N(CC2CCCO2)C1 (stereo not drawn) | inactive | 
CCCN(CCC)C(C(=O)Nc1cccc(OC)c1)c1ccccc1 (stereo not drawn) | inconclusive [inhibitor, single point] | 
COc1cccc(C(=O)COC(=O)c2cccs2)c1 | inactive | 
O=C(N[C@H]1C/C=C\C[C@@H](CC(=O)N(CCO)Cc2ccccc2)C(=O)N2CCC[C@@H]2COC1=O)OCC1c2ccccc2-c2ccccc21 | active: 6.51 µM | 
COc1ccc(-c2nc(C(=O)O)cs2)cc1OC | inactive | 
O=C(O)C1=C(CSc2nnnn2CS(=O)(=O)O)CS[C@@H]2[C@H](NC(=O)[C@H](O)c3ccccc3)C(=O)N12 | inactive | 
CC(=O)Nc1ccc(-c2ccnc3c2CC(C)(C(=O)NCc2ccc(N4CCN(C)CC4)cc2)O3)cc1 (stereo not drawn) | inconclusive [inhibitor, full curve] | 
COc1ccc([C@H]2C=C3CN(C(=O)OC(C)(C)C)S(=O)(=O)[C@H]3C[C@H]2OC(=O)c2cccs2)cc1 | inconclusive [inhibitor, single point] | 
Cc1ccc(C(=O)O)cc1NC(=S)NC(=O)c1ccc(COc2ccccc2)cc1 | inconclusive [inhibitor, single point] | 

SMILES | Potency | activity change, negative = growth inhibition
Cc1cc(C(=O)N/N=C/c2ccc(-c3ccc([N+](=O)[O-])cc3C)o2)n[nH]1 | inconclusive [inhibitor, single point] | 
C(=C\c1nccc2ccccc12)/c1ccc(N2CCOCC2)cc1 | inconclusive [inhibitor, single point] | 
COc1cccc(N2CCN(C(=O)Cn3cnc4onc(-c5ccc(F)cc5)c4c3=O)CC2)c1 | active: 20.6 µM | 
CCN(CC)S(=O)(=O)c1cccc(C(=O)Nc2ccc(Cl)cn2)c1 | inconclusive [inhibitor, partial curve] | 
N#Cc1ccc(NC(=O)c2nc(-c3ccccc3)n(-c3ccccc3)n2)cc1 | inconclusive [inhibitor, single point] | 
CCCc1nc(N)c(C#N)c(N)c1C#N |  | inconclusive: -31.5% [inhibitor]
COc1ccc(C)cc1NC(=O)C1CCCN(S(=O)(=O)c2ccc3c(c2)oc(=O)n3C)C1 (stereo not drawn) | inconclusive [inhibitor, single point] | 
COc1cccc(NC(=O)CN(C)C(=O)c2ccc(NC3CC3)c([N+](=O)[O-])c2)c1 |  | inconclusive: -31% [inhibitor]
COc1ccc(NC(=S)N2c3ccccc3CC2C)cc1OC (stereo not drawn) | inconclusive [inhibitor, single point] | 
COc1ccc(N2CCN(C(=O)c3ccc(-c4ccccc4)cc3)CC2)cc1 | inactive | 
CN(CC(=O)NCc1ccc2c(c1)OCO2)S(=O)(=O)c1ccc(F)cc1 | inactive | 
CCOc1ccc(S(=O)(=O)n2cnc3cc(C)c(C)cc32)cc1 | active: 8.2 µM | 
CC(C)(C)c1ccc(S(=O)(=O)N2CCCCC2)cc1 | inconclusive [inhibitor, single point] | 
C/C(=N\NC(=O)c1cc2c(s1)CCC(C)C2)c1ccncc1 (stereo not drawn) | inconclusive [inhibitor, single point] | 
COc1ccc(S(=O)(=O)N2CCN(C(=O)COc3ccc4c(C)cc(=O)oc4c3)CC2)cc1 | inconclusive [inhibitor, single point] | 
CC(C)Nc1nc(Nc2ccc(C(N)=O)cc2)c2sccc2n1 | inconclusive [inhibitor, single point] | 
Cc1ccc(S(=O)(=O)c2cc3c(=O)n4ccccc4nc3n(Cc3ccco3)c2=N)cc1C | inconclusive [inhibitor, partial curve] | 
CC(NC(=S)NC1CCC(C(C)(C)C)CC1)c1ccccc1 (stereo not drawn) | inconclusive [inhibitor, single point] | 
Cc1ccc(Cc2c(-c3ccc(Br)cc3)nc3ccc(Cl)cn23)cc1 | inconclusive [inhibitor, single point] | 
COc1ccc(N(C(=O)Cn2nnc3ccccc32)C(C(=O)NCc2ccco2)c2ccc(C)o2)cc1 (stereo not drawn) | inactive | 
O=C(Nn1cc(C(=O)Nc2ccccc2F)c2ccccc2c1=O)c1cnccn1 | inconclusive [inhibitor, single point] | 
CCC1Nc2ncnc(N3CCc4ccccc4C3)c2N(Cc2ccc(Br)cc2)C1=O (stereo not drawn) | inconclusive [inhibitor, single point] | 
O=C1NC[C@H](Cc2ccccc2)N(CCc2cc(C(F)(F)F)cc(C(F)(F)F)c2)C1=O | inconclusive [inhibitor, single point] | 

SMILES | Potency | activity change, negative = growth inhibition
Cc1ccc(NC(=O)[C@H](C)NC(=O)C2CCN(C(=O)[C@@H](N)C(C)C)CC2)cc1 | inactive | 
Cc1cc2cc(CNC(=O)Nc3cccc(Cl)c3)ccc2n1C | inactive | 
CC(C)(CNC(=O)c1sc2cc(F)ccc2c1Cl)N1CCOCC1 | inconclusive [inhibitor, single point] | 
CCOC(=O)Cc1csc(NC(=O)c2cccc([N+](=O)[O-])c2)n1 | inconclusive [inhibitor, partial curve] | 
O=C(NC(=S)Nc1ccc(S(=O)(=O)Nc2nccs2)cc1)c1ccccc1F | inactive | 
CNC(=O)c1cccc(NC(=O)c2cc(-c3ccccc3)nc3c2cnn3C(C)C)c1 | inconclusive [inhibitor, single point] | 
Cc1ccc(SCc2nc(-c3ccc(C(=O)NCc4ccccc4Cl)cc3)oc2C)cc1 | active: 9.2 µM | 
O=C(CC1CCCCC1)NCCOc1ccccc1 | inconclusive [inhibitor, single point] | 
CC(C)Cc1ccc(C(C)C(=O)Nc2nccs2)cc1 (stereo not drawn) | inconclusive [inhibitor, single point] | 
Cc1cc(C)n(-c2ncnc3sc(C)c(C)c23)n1 | inactive | 
CC1=C(C(=O)OCc2ccc3nsnc3c2)N2C(=O)[C@@H](NC(=O)OCc3ccc4nsnc4c3)[C@H]2SC1 | inconclusive [inhibitor, single point] | 
OCC1(Cc2ccccc2)CCN(C2CCN(c3ccc(F)c(F)c3)CC2)CC1 | active: 11.6 µM | 
CC[n+]1cccc(-c2nc3ccccc3s2)c1 | inactive | 
Cc1ccc(OCc2nnc(SCc3ccc(C#N)cc3)n2-c2ccc(C)cc2)cc1 | active: 16.4 µM | 
Cn1c(=O)c(=O)n(C)c2cc(N3CCCC3)c(NC(=O)c3ccc(C(C)(C)C)cc3)cc21 | inconclusive [inhibitor, single point] | 
COc1cccc(CNC(=O)CN(c2ccc(C(C)C)cc2)S(=O)(=O)c2c(C)n[nH]c2C)c1 | active: 23.1 µM | 
COc1cccc(-c2nnc3n(CCc4ccccc4)c(=O)c4ccccc4n23)c1O | inconclusive [inhibitor, full curve, poor fit] | 
CCOC(=O)CC(=O)CSc1nc2ccccc2c(=O)n1CCc1ccccc1 | inconclusive [inhibitor, single point] | 
COc1ccc(S(=O)(=O)N2CCN(c3ccccn3)CC2)c(OC)c1 | inconclusive [inhibitor, partial curve] | 
Cc1ccc(S(=O)(=O)n2c([N+](=O)[O-])cnc2C)c(C)c1C | inconclusive [inhibitor, single point] | 
CC1CN(C(=O)c2ccc(NS(=O)(=O)c3ccc(F)c(F)c3)cc2)CC(C)O1 (stereo not drawn) | inactive | 
CS(=O)(=O)N1CCCC(C(=O)Nc2ccccc2C(F)(F)F)C1 (stereo not drawn) | inactive | 
